Laboratory results as given in ChEMBL document CHEMBL1201862, “PubChem BioAssay data set” (2004).

Test system: NCI-H322M
Assay: NCI tumour cell line growth inhibition, 48 h

SMILES | GI50
O=C1Oc2ccccc2C(=O)/C1=C/N1C(=O)N/C(=C\c2ccccc2O)C1=O | inactive: 50.9 µM
CCOC(=O)C(NC(=O)CC)(Nc1cc(C)on1)C(F)(F)F (stereo unspecified) | inactive: > 100 µM
C=CCNS(=O)(=O)c1ncnc2[nH]cnc12 | inactive: > 100 µM
O=C1C(Cl)=C(Cl)C(=O)N1c1ccccc1Cl | inactive: > 100 µM
Oc1c2c(nc3cc4c(cc13)OCO4)-c1ccccc1CCC2 | inactive: > 50 µM
COc1c(C=O)c2c(c(OC)c1OC)-c1ccc(OC)c(=O)cc1[C@@H](NC(C)=O)CC2 | active: 0.321 µM
COc1ccc2cc(C(=O)NCCCNC(=O)c3ccc4cc(OC)ccc4c3)ccc2c1 | inactive: > 100 µM
N/C(=N\Nc1ccc(S(N)(=O)=O)cc1)c1cnccn1 | inactive: > 100 µM
CC(C)C(C)/C=C\C(C)C1CCC2C3=CC=C4CC(O)CCC4(C)C3CCC21C (stereo unspecified) | inactive: > 72.4 µM
CC1CC(c2cccc3c2OCO3)=Nc2ccccc2S1 (stereo unspecified) | inactive: > 100 µM
O=C1C=CC2(C=C1)CCNC1=C2C(=O)c2ccccc2C1=O | inactive: > 100 µM
COC(=O)C(NC(=O)C(CC(=O)OC(C)(C)C)NC(=O)OC(C)(C)C)C(O)c1ccccc1 (stereo unspecified) | inactive: 34 µM
Cc1nc(=O)[nH]c2s/c(=N/C3CCCCC3)n(C3CCCCC3)c(=O)c12 | inactive: > 100 µM
N/N=C(\C(=O)Nc1ccc([N+](=O)[O-])cc1)C(C1=Nc2cc([N+](=O)[O-])ccc2NC1)[N+](=O)[O-] (stereo unspecified) | inactive: > 100 µM
Cc1cn(C2CC(n3cc(Cn4cc(F)c(=O)[nH]c4=O)nn3)C(CO)O2)c(=O)[nH]c1=O (stereo unspecified) | inactive: > 100 µM
Nc1ncc(Br)c(NCC2(CO)CCC2)n1 | inactive: > 100 µM
O=c1ssc2c1Nc1c(ssc1=O)S2 | inactive: 17 µM
C#CC(O)/C=C/C(O)CCCC(O)CC#CC(O)C#CC(O)CCCC(O)/C=C/CCCCCC(=O)CCCCCCCCCCCCCC(O)C(O)C#CC(=O)O (stereo unspecified) | inactive: 27.2 µM

SMILES | GI50
CSc1nc(N)c(NC2OC(CO)C(O)C2O)c(=O)[nH]1 (stereo unspecified) | inactive: > 100 µM
Nc1ncnc2c1ncn2C1C=CC(COS(N)(=O)=O)C1 (stereo unspecified) | inactive: > 100 µM
Nc1nnc(N)n1NC(=O)C(=O)Nc1ccc([N+](=O)[O-])cc1 | inactive: > 100 µM
COC(=O)C1(C(=O)OC)CC2=C(S(=O)(=O)c3ccccc3)C[C@H](C#N)[C@H]2C1 | inactive: > 100 µM
Cn1c2ccc(F)cc2c2ccc3c(c21)C(=O)C=CC3=O | inactive: 28.8 µM
COc1ccc2nc3cc(Cl)ccc3c(NCCC[N+](C)(C)CCCCCCCCCCCCCCCC[N+](C)(C)CCCNc3c4ccc(Cl)cc4nc4ccc(OC)cc34)c2c1 | inactive: 2.52 µM
CC(=O)OC12CC(C(F)(F)F)(C(F)(F)F)OC1(OC(C)=O)CC(C(F)(F)F)(C(F)(F)F)O2 (stereo unspecified) | inactive: 1.94 µM
COc1ccc(Nc2nnc(-c3nsc4ccccc34)s2)cc1 | inactive: 11.6 µM
Cc1ccccc1NC(=O)/C=N/O | inactive: > 100 µM
COCN(CCC1=CCCCC1)C(=O)OC | inactive: > 100 µM
O=C(CP(=O)(O)O)c1cccs1 | inactive: > 100 µM
Cc1csc2nc(-c3cccc([N+](=O)[O-])c3)c(/C=N/N=C(N)N)n12 | inactive: 1.57 µM
O=C(OCc1ccccc1)c1nc2ccccc2n1S(=O)(=O)c1ccccc1 | inactive: > 100 µM
Nc1nc(=O)[nH]c2c1cnn2Cc1ccccc1 | inactive: > 100 µM
CCOC(=O)c1nc2ccccc2nc1Nc1ccc(Cl)c(Cl)c1 | inactive: 71.8 µM
[O-][N+]1=C(c2ccccc2)/C(=C2/C(c3ccccc3)=[N+]([O-])c3ccccc32)Cc2ccccc21 | inactive: 14.5 µM
COc1cc(/C=C2\N=C(c3ccccc3)N(c3nc4cc(C)c(C)cc4s3)C2=O)ccc1O | inactive: 52 µM
Oc1cc(O)c2c(-c3c(O)c(-c4ccc(O)c(O)c4)[o+]c4cc(O)cc(O)c34)c(O)c(-c3ccc(O)c(O)c3)[o+]c2c1 | inactive: 33.4 µM

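Where inhibition never reached the appropriate level, the endpoint shown equals the highest concentration tested. Otherwise, values were interpolated linearly from a five-concentration, 48-hour dose response in 96-well plates. Here, GI50 denotes the concentration required for 50% inhibition of growth.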 Active and inactive are the calls of the source. Cut-off read from the data, not from the text of the source: active = GI50 up to about 1.1 µM and inactive = higher.
